Data from publication PMC4336329 (PLoS ONE, 2015).
Hit rate of the full screen: of about 310,000 compounds, about 14,000 (4.5%) showed an effect of 50% or more. Effects have a minus sign here. The list shows a part of the results.

target: human ether-à-go-go-related gene (hERG) potassium channel (human, UniProt Q12809); test: primary screen, population patch clamp on CHO cells stably expressing hERG
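Further: peak tail current of the secondary pulse compared with the same well before compound.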

Chain of human ether-à-go-go-related gene (hERG) potassium channel (Q12809 whole entry, looked up): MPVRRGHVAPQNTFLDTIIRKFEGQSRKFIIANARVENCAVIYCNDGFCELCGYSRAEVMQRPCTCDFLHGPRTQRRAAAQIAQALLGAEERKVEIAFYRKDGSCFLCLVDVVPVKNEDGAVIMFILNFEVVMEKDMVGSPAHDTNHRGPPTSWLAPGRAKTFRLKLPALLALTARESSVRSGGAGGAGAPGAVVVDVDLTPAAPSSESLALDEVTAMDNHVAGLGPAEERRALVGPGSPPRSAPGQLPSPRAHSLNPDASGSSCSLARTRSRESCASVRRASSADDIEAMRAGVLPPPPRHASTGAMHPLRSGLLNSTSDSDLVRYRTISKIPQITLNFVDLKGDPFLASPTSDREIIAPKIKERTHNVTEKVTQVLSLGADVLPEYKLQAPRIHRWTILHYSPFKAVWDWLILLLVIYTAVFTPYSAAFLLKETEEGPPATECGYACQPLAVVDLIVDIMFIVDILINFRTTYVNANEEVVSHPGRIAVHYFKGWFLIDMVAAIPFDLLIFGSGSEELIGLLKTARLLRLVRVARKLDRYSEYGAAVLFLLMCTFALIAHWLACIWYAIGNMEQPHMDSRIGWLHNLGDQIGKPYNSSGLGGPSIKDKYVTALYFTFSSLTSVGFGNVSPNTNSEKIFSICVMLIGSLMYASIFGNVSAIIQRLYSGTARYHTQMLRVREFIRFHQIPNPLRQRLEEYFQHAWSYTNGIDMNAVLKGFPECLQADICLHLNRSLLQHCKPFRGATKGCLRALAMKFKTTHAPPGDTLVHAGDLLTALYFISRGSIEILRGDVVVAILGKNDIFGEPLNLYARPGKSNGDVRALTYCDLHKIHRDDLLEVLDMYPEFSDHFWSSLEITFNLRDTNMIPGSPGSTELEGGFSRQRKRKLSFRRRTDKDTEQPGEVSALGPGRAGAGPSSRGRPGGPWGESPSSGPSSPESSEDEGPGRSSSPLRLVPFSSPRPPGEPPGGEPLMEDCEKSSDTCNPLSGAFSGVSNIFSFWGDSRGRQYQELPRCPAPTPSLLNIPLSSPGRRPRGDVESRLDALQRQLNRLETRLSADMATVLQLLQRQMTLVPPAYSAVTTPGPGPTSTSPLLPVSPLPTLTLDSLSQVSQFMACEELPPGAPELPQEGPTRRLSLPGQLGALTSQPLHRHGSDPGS

With `O=c1cc(Nc2cccc(Br)c2)[nH]c(=O)[nH]1` as the molecule, how does the “hERG current change (%, negative = inhibition) at 10uM” value read?
The value was -11.5%.

For `CCOC(=O)N1CCN(C(=O)c2ccc(CS(=O)(=O)c3c(Cl)cccc3Cl)o2)CC1`, which “hERG current change (%, negative = inhibition) at 10uM” value is on record?
The value was -13.9%.

For `CC1(C)CC(=O)C2=C(C1)OC1OC(=O)CC21C` (stereo not shown), which “hERG current change (%, negative = inhibition) at 10uM” value is on record?
The value was 6.77%.

With `CCOC(=O)C1(C)NC(c2ccc(OC)cc2OC)C2C(=O)N(c3cccc(OC)c3)C(=O)C21` (stereo not shown) as the molecule, how does the “hERG current change (%, negative = inhibition) at 10uM” value read?
Its value is 8.78%.

How did the “hERG current change (%, negative = inhibition) at 10uM” value turn out when `O=C(C1Cc2ccccc2CN1S(=O)(=O)c1ccc(F)cc1)N1CCOCC1` (stereo not shown) was run?
Its value is -18%.

For `CCCCc1nc(C(N)=O)c2[nH]c(=O)n(-c3ccc(OC)c(OC)c3)c2n1`, which “hERG current change (%, negative = inhibition) at 10uM” value is on record?
The value was 10.7%.

`Cc1ccccc1C(=O)Nc1cccc(N)c1` was tested. Which “hERG current change (%, negative = inhibition) at 10uM” value did it give?
Its value is -1.8%.

How did the “hERG current change (%, negative = inhibition) at 10uM” value turn out when `O=C(NCc1ccccn1)Nc1ccccc1Cl` was run?
Its value is 25%.

`CCOC(=O)c1ccc(NC(=S)N(CCCN2CCCC(C)C2)Cc2cccs2)cc1` (stereo not shown) was tested. Which “hERG current change (%, negative = inhibition) at 10uM” value did it give?
The value was -76.3%.

With `CCN1CCN(CC(O)COc2ccc3c(C)cc(=O)oc3c2)CC1.Cl` (stereo not shown) as the molecule, how does the “hERG current change (%, negative = inhibition) at 10uM” value read?
The value was -0.83%.

`COc1ccc(-n2nc([N+](=O)[O-])c(=NCCc3ccc(C)cc3)n2O)cc1` was tested. Which “hERG current change (%, negative = inhibition) at 10uM” value did it give?
The value was -3.72%.

How did the “hERG current change (%, negative = inhibition) at 10uM” value turn out when `COc1ccc(C(=O)OCc2c(-c3cccc(OC)c3)ncc3ccccc23)cc1` was run?
The value was 12.8%.

Which “hERG current change (%, negative = inhibition) at 10uM” value does the source give for `N#C/C(=C\c1ccc(N2CCOCC2)c([N+](=O)[O-])c1)c1nc2ccccc2[nH]1` here?
The value was -59.6%.

Which “hERG current change (%, negative = inhibition) at 10uM” value does the source give for `Cc1nonc1CC(=O)N1CCCC(C(=O)c2cccc(C(F)(F)F)c2)C1` (stereo not shown) here?
Its value is -56.2%.

With `S=C(Nc1cc(Cl)cc(Cl)c1)N1CCCC1` as the molecule, how does the “hERG current change (%, negative = inhibition) at 10uM” value read?
The value was 3.02%.

For `CCCCCCOc1ccc(CN2CCN(CC)CC2)cc1`, which “hERG current change (%, negative = inhibition) at 10uM” value is on record?
Its value is -41.1%.

For `Nc1nnc(CC(=O)N/N=C/c2cc([N+](=O)[O-])cc(Br)c2O)s1`, which “hERG current change (%, negative = inhibition) at 10uM” value is on record?
Its value is 11.7%.

`O=C(CN(C(=O)c1ccccc1Cl)N1C(=O)C2C3C=CC(C3)C2C1=O)c1cccs1` (stereo not shown) was tested. Which “hERG current change (%, negative = inhibition) at 10uM” value did it give?
Its value is 7.25%.

For `CC(OC(=O)c1ccc(Cl)nc1)C(=O)NC(C)(C)C` (stereo not shown), which “hERG current change (%, negative = inhibition) at 10uM” value is on record?
Its value is 17.6%.

How did the “hERG current change (%, negative = inhibition) at 10uM” value turn out when `COc1cc(SC#N)ccc1N=Cc1c(C)[nH]n(-c2ccc(C)c(C)c2)c1=O` was run?
Its value is -2.66%.

Which “hERG current change (%, negative = inhibition) at 10uM” value does the source give for `O=C(O)C1C2CCC(O2)C1C(=O)NCc1ccccc1Br` (stereo not shown) here?
Its value is 13.8%.

For `CCOc1ccccc1N1C(=O)CC(Sc2nccc(C)n2)C1=O` (stereo not shown), which “hERG current change (%, negative = inhibition) at 10uM” value is on record?
The value was 22%.

Which “hERG current change (%, negative = inhibition) at 10uM” value does the source give for `COc1ccc(C2Nc3ccccc3C(=O)N2Cc2ccco2)cc1COc1ccc(NC(C)=O)cc1` (stereo not shown) here?
Its value is -24.9%.

With `c1ccc(OCc2nn3c(Cn4nnc5ccccc54)nnc3s2)cc1` as the molecule, how does the “hERG current change (%, negative = inhibition) at 10uM” value read?
The value was -30.7%.

How did the “hERG current change (%, negative = inhibition) at 10uM” value turn out when `CCOC(=O)N1CCC(Nc2ncnc3c2cnn3-c2ccccc2)CC1` was run?
Its value is -12.1%.

With `Cc1cc(C(F)(F)F)n(-c2nc(C(=O)Nc3cccnc3)cs2)n1` as the molecule, how does the “hERG current change (%, negative = inhibition) at 10uM” value read?
Its value is -20%.

`Cc1ccc(N=Cc2cc(Br)cc(Cl)c2O)cc1` was tested. Which “hERG current change (%, negative = inhibition) at 10uM” value did it give?
Its value is 23.3%.

Which “hERG current change (%, negative = inhibition) at 10uM” value does the source give for `Cc1ccc(NCc2nc(SCC(=O)Nc3ccccc3)n[nH]2)cc1` here?
The value was 19.5%.

How did the “hERG current change (%, negative = inhibition) at 10uM” value turn out when `O=C(/C=C/c1ccc(F)cc1)NC(Cc1c[nH]c2ccccc12)C(=O)O` (stereo not shown) was run?
The value was -1.47%.

With `O=c1c2ccccc2sn1-c1cc(S(=O)(=O)N2CCOCC2)ccc1N1CCCC1` as the molecule, how does the “hERG current change (%, negative = inhibition) at 10uM” value read?
Its value is 0.515%.

For `COc1ccccc1CNC(=O)CCc1nc2ccccc2c(=O)[nH]1`, which “hERG current change (%, negative = inhibition) at 10uM” value is on record?
Its value is -1.26%.

`CSc1ccc(/C=N/NC(=O)COc2ccc(Br)cc2Cl)cc1` was tested. Which “hERG current change (%, negative = inhibition) at 10uM” value did it give?
The value was 9.71%.

With `CCOC(=O)CSc1nc(-c2ccc3c(c2)OCO3)ccc1C#N` as the molecule, how does the “hERG current change (%, negative = inhibition) at 10uM” value read?
Its value is 7.3%.

How did the “hERG current change (%, negative = inhibition) at 10uM” value turn out when `Cn1cc(C(=O)c2ccc(Cl)cc2)cc1-c1nc2ccccc2n1C` was run?
The value was -47.9%.

How did the “hERG current change (%, negative = inhibition) at 10uM” value turn out when `COc1ccccc1CNC(=O)c1cn(C)c2ccc(S(=O)(=O)N3CCCCC3)cc2c1=O` was run?
Its value is 29.6%.

Which “hERG current change (%, negative = inhibition) at 10uM” value does the source give for `CN(C)S(=O)(=O)c1ccc(C(=O)NCc2nnc(SCC(=O)N3CCCCCC3)o2)cc1` here?
The value was 21.4%.

With `CCOC(=O)C1=C(c2ccc(OC)cc2)C(=O)c2ccccc2C1=O` as the molecule, how does the “hERG current change (%, negative = inhibition) at 10uM” value read?
The value was 15.7%.

Which “hERG current change (%, negative = inhibition) at 10uM” value does the source give for `CC1CC2(CCCC2)N(C(=O)N(C)C)c2ccc(F)cc21` (stereo not shown) here?
The value was 7.09%.

With `O=Cc1ccccc1OCCN1CCCC1=O` as the molecule, how does the “hERG current change (%, negative = inhibition) at 10uM” value read?
Its value is 17.2%.

How did the “hERG current change (%, negative = inhibition) at 10uM” value turn out when `CSc1ccc(S(=O)(=O)N2CCC(C(=O)NCc3ccccn3)CC2)cc1` was run?
Its value is -7.66%.

For `O=C(c1cc(S(=O)(=O)N2CCCCC2)c(Cl)cc1N1CCOCC1)N1CCOCC1`, which “hERG current change (%, negative = inhibition) at 10uM” value is on record?
The value was -5.57%.

Which “hERG current change (%, negative = inhibition) at 10uM” value does the source give for `COc1ccccc1/C=C/C=N/n1c(-c2ccccc2)n[nH]c1=S` here?
Its value is -18.9%.

Which “hERG current change (%, negative = inhibition) at 10uM” value does the source give for `CCOC(=O)c1c(C=O)c2ccccc2n1CC` here?
Its value is 17.1%.
